The supplement of paper PMC12217912
The list shows a part of the results. The full chains were built here from the parent and the listed change. Values near 0.05 are background.

B1: TEV protease; numbered along this chain (parent)
chain: MGESLFKGPRDYNPISSSICHLTNESDGHTTSLYGIGFGPFIITNKHLFRRNNGTLVVQSLHGVFKVKDTTTLQQHLVDGRDMIIIRMPKDFPPFPQKLKFREPQREERICLVTTNFQTKSMSSMVSDTSCTFPSGDGIFWKHWIQTKDGQCGSPLVSTRDGFIVGIHSASNFTNTNNYFTSVPKNFMELLTNQEAQQWVSGWRLNADSVLWGGHKVFMVKPEEPFQPVKEATQL

Variants of: B1
Assay: raw area under fraction-flipped curve 0-4 h after induction (AUC4h, not background-subtracted), DNA-recorder readout of cleavage of the substrate (dimensionless); higher = more cleavage of the substrate by the protease variant
Settings: temperature: 34 °C; time window: 0-4 h after rhamnose induction
Experimental: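 In vivo DNA recorder in E. coli TOP10(DE3) ΔrhaA at 34 °C. Each TEVp single-site mutant (parent TEVp 0) is paired with a single-site variant of the 7-mer TEVs (canonical ENLYFQ|S). The substrate sits between flexible linkers in a Bxb1-sfGFP-TEVs-SsrA fusion, so cleavage stabilises Bxb1 and speeds flipping of a recombination array, read by NGS. The value is the raw area under the fraction-flipped curve over 0-4 h after rhamnose induction (AUC4h), with ≥20 reads per time point. It is not background-subtracted; inactive controls average about 0.047.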
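Further: Bxb1 expression induced with 0.2% (w/v) L-rhamnose at OD600 near 0.5, cultures sampled hourly, flipped fraction per protease–substrate barcode pair counted by paired-end Illumina sequencing.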

Variant | area with substrate ANLYFQS | area with substrate CNLYFQS | area with substrate HNLYFQS | area with substrate LNLYFQS | area with substrate MNLYFQS | area with substrate PNLYFQS | area with substrate FNLYFQS | area with substrate INLYFQS | area with substrate KNLYFQS | area with substrate TNLYFQS | area with substrate WNLYFQS | area with substrate YNLYFQS | area with substrate GNLYFQS | area with substrate QNLYFQS | area with substrate SNLYFQS | area with substrate DNLYFQS | area with substrate NNLYFQS | area with substrate RNLYFQS | area with substrate VNLYFQS
F226A | 0.0619 | 0.0697 | 0.0673 | 0.0425 | 0.0727 | 0.067 |  |  |  |  |  |  |  |  |  |  |  |  | 
F226K | 0.0828 | 0.0842 | 0.0516 |  | 0.0641 | 0.0688 | 0.0763 | 0.0857 | 0.0689 | 0.0613 | 0.0649 | 0.063 |  |  |  |  |  |  | 
K148F | 0.0783 | 0.0623 | 0.0681 | 0.0653 | 0.0619 |  |  |  |  | 0.0819 | 0.0654 |  | 0.0698 | 0.0724 | 0.0768 |  |  |  | 
K148I | 0.055 |  | 0.0634 |  |  | 0.067 | 0.0708 |  |  |  |  |  |  |  |  | 0.0642 | 0.0582 | 0.0605 | 
K148P | 0.0379 | 0.059 |  | 0.0693 | 0.0448 | 0.0635 | 0.0708 | 0.0303 | 0.0623 | 0.0396 | 0.0377 |  | 0.0707 | 0.0446 | 0.0565 |  |  |  | 
E107K | 0.0843 | 0.0687 | 0.074 | 0.0736 | 0.0691 | 0.0792 | 0.0492 | 0.052 | 0.0644 | 0.0839 | 0.0722 | 0.0608 | 0.0673 |  |  |  | 0.0837 |  | 
I42H | 0.037 | 0.0605 | 0.0615 | 0.045 |  | 0.0379 |  |  |  | 0.0457 | 0.0452 | 0.0301 |  |  | 0.0341 |  | 0.0607 |  | 
S124Q | 0.0618 | 0.0766 | 0.0653 | 0.128 |  | 0.0665 |  | 0.0693 |  | 0.0634 | 0.0568 | 0.0714 |  | 0.0773 |  |  | 0.0666 | 0.0569 | 
F180P | 0.051 | 0.0513 | 0.0506 |  |  | 0.0501 | 0.048 | 0.047 |  | 0.0596 | 0.0496 | 0.0424 | 0.0593 |  |  | 0.0565 | 0.0556 |  | 0.0436
F173S | 0.0614 | 0.0653 | 0.0606 | 0.0732 | 0.0708 | 0.0618 |  | 0.0798 | 0.0545 | 0.0729 | 0.0608 | 0.0699 |  |  |  |  | 0.0509 | 0.0615 | 0.0465
G35P | 0.0397 | 0.0583 |  |  |  |  |  |  |  | 0.0378 | 0.0756 |  |  |  |  |  |  |  | 
G37N | 0.0609 | 0.0566 |  | 0.0636 |  | 0.0521 | 0.0706 | 0.0592 | 0.068 | 0.0489 | 0.0547 | 0.0258 | 0.0521 |  | 0.0539 |  |  | 0.0281 | 
R10N | 0.0586 | 0.0574 | 0.062 |  | 0.0743 | 0.0675 |  | 0.068 | 0.0748 | 0.0635 | 0.0648 | 0.0643 |  |  |  | 0.0773 | 0.0735 |  | 
S17V | 0.0622 | 0.0793 | 0.0586 | 0.0578 | 0.0565 | 0.0678 | 0.0607 | 0.0726 | 0.0732 | 0.0664 | 0.0555 | 0.0659 | 0.0619 | 0.0711 | 0.0653 |  | 0.0748 |  | 
S17M | 0.0506 | 0.0731 | 0.0743 | 0.0618 | 0.0614 | 0.0646 | 0.0523 | 0.0879 | 0.0701 | 0.0541 | 0.0589 | 0.0634 | 0.0642 | 0.0794 | 0.06 |  |  | 0.0665 | 0.0662
I85M | 0.0978 |  |  |  | 0.0722 | 0.0616 | 0.0283 |  |  |  | 0.052 | 0.0519 | 0.0676 | 0.0755 | 0.0731 | 0.0654 | 0.0664 |  | 
I85D | 0.0409 | 0.0678 |  |  | 0.0576 | 0.0444 |  | 0.0386 |  | 0.0525 | 0.0401 |  | 0.0564 |  | 0.0438 |  |  | 0.0229 | 
W141G | 0.0627 | 0.0356 | 0.0563 |  |  | 0.0588 |  | 0.055 |  |  | 0.0529 | 0.0498 | 0.0642 | 0.051 | 0.0623 |  | 0.0522 |  | 0.0779
K46Q | 0.0717 |  | 0.0689 |  | 0.052 | 0.068 | 0.0412 | 0.051 | 0.0482 |  | 0.0558 | 0.0645 | 0.0712 |  |  | 0.063 |  | 0.0693 | 
K46H | 0.058 |  | 0.0696 | 0.0569 | 0.0524 | 0.0576 | 0.0308 | 0.0477 | 0.0535 | 0.063 | 0.0521 | 0.0539 | 0.0447 |  | 0.0548 | 0.0524 | 0.0809 | 0.0552 | 0.0544
V126R | 0.0655 |  | 0.0581 | 0.0806 | 0.0796 | 0.0691 | 0.0635 | 0.0668 | 0.074 | 0.0706 | 0.0625 | 0.0974 | 0.0591 | 0.0841 | 0.0886 | 0.0984 | 0.0688 |  | 0.0692
E195F | 0.0495 |  | 0.0646 |  | 0.0817 |  | 0.0558 | 0.0718 | 0.056 |  | 0.0352 | 0.0584 |  |  | 0.067 | 0.0528 | 0.0712 | 0.0594 | 0.0514
V183F | 0.0809 | 0.0768 | 0.0603 | 0.0607 | 0.0592 |  | 0.0598 | 0.0961 |  | 0.0483 | 0.052 |  | 0.0029 |  | 0.055 |  |  |  | 0.0524
Q151I | 0.0759 |  |  | 0.0647 |  | 0.0806 | 0.0597 | 0.0669 |  | 0.0714 | 0.055 | 0.0603 | 0.0563 | 0.0536 | 0.0699 | 0.0868 |  | 0.0456 | 
Q151L | 0.0625 | 0.0482 | 0.0623 |  |  | 0.0616 | 0.0385 |  |  | 0.059 | 0.0669 |  |  |  |  |  |  |  | 0.0411
Q151P | 0.0561 |  |  | 0.0587 |  | 0.0608 |  | 0.054 |  | 0.0531 | 0.038 | 0.0562 |  |  | 0.0525 | 0.0579 |  |  | 
P222Y | 0.0426 | 0.0573 | 0.0665 | 0.0604 |  | 0.0571 | 0.0808 | 0.0703 |  | 0.0699 | 0.0415 |  | 0.0551 | 0.0638 | 0.0712 |  | 0.0523 |  | 0.077
G202M | 0.0646 | 0.072 | 0.0524 |  |  | 0.057 | 0.077 |  |  |  | 0.0549 | 0.0602 |  |  | 0.0496 |  | 0.0688 |  | 0.0408
Q97I | 0.0416 | 0.0437 |  |  |  |  |  | 0.0466 |  | 0.0542 | 0.0652 | 0.0641 | 0.0604 |  |  |  |  | 0.0755 | 0.0468
